The full ranking holds about 110,000 compounds; the median of “z-score” is about -0.1, and the highest 2% start at about 2. This is one part of the list.

The target in this test is Metabotropic glutamate receptor 8 (Rattus norvegicus) (UniProt P70579). Kind of test: rat mGluR8 modulators via GIRK flux, primary screen, cell-based, thallium flux, HTS (AID 488969). The settings on record: HEK293 rat mGluR8, GIRK (G protein-gated inwardly rectifying potassium channel) thallium flux, FluoZin2; at 10 µM; stronger effect = higher value.
UniProt P70579, sequence (P70579 whole entry, looked up): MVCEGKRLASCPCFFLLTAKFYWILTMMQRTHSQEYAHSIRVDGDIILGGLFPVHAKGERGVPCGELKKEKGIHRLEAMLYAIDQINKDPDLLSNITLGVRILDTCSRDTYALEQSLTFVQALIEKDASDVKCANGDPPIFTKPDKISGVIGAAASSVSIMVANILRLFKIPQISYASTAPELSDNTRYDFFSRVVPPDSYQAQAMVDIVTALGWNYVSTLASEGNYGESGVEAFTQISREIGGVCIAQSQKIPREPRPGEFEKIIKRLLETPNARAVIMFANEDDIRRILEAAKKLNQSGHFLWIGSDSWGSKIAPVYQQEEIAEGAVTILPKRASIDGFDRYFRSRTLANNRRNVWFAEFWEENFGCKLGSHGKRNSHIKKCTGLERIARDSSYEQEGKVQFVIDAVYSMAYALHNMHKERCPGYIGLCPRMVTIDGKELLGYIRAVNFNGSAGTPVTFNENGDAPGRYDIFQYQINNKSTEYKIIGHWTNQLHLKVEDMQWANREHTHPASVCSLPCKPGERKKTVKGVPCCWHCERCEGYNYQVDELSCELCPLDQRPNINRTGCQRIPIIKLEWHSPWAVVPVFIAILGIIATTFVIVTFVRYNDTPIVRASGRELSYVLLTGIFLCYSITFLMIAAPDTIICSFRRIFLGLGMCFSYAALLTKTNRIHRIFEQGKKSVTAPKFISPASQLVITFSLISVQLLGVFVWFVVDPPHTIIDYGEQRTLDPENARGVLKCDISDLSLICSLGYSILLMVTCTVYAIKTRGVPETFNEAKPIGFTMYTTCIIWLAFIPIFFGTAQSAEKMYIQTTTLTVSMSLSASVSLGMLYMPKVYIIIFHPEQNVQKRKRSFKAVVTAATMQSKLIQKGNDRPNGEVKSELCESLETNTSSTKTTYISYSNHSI
As for `Cc1cccc(N2C(=O)NC(=O)/C(=C\c3cc(C)n(-c4sc5c(c4C#N)CCCC5)c3C)C2=O)c1C`, the z-score came out at 0.0132.
The same measure for `COc1ccccc1CCNCc1cc2c(cc1[N+](=O)[O-])OCO2`: -0.956.
With `Cc1ccc(C2=NC(C)(C)N3C2C3c2ccc([N+](=O)[O-])cc2)cc1` (stereo not drawn) the figure was 0.597; with `CN1CN=C(N[N+](=O)[O-])N(Cc2ccco2)C1`, -0.203; with `c1ccc2c(CCNCc3ccc4c(c3)OCO4)c[nH]c2c1`, 2.19.
As for `CN1C(=O)C(=Cc2ccc(N3CCOCC3)o2)C(=O)N(C)C1=O`, the z-score is -0.283.
The same measure for `CNCC1(c2ccccc2)CCCC1`: 0.566; for `NC12CN3CN(CN(C3)C1)C2` (tested in a mixture with another compound): -0.55.
Compound `O=C(c1cc2c(s1)CCCC2)N1CCC2(CC1)OCCO2` had a z-score of -0.173.
With `CC(C)CNC(=O)c1c(N)n(Cc2ccco2)c2nc3ccccc3nc12` the figure was 0.259.
`COc1ccccc1Sc1ccccc1CC(C)N` (stereo not drawn) displayed a z-score of 1.35.
With `O=P(N1CCCCC1)(N1CCCCC1)C(Cl)(Cl)Cl` the figure was -0.128; with `Cc1cccc(C(=O)Nc2ccc(Cl)cc2C(=O)c2ccccc2)c1`, -0.24.
Turning to `CCOC(=O)[C@@]1(C#N)C(c2ccc(Cl)c(Cl)c2)[C@H](C(N)=O)N2C=C(C(C)=O)C=C[C@H]21` (stereo partly drawn), the z-score amounted to 0.0752.
With `CCOC(=O)c1sc(/N=C/c2c(O)n(-c3ccccc3)c(=O)[nH]c2=O)c(C#N)c1C` the figure was -0.66; with `CSC1=NP(=S)(SC)N2CCCC2=C1C#N` (stereo not drawn), -0.415; with `CCCc1nc2ccccc2c(=O)n1-c1ccc(OC)cc1`, -0.69.
The compound `O=C1c2ccccc2C(=O)N1Cc1nc2ccccc2c(=O)n1-c1cccnc1` registered a z-score of 0.42.
`O=C(C1CC(=O)N(C2CCCC2)C1)N1CCC2(CC1)OCCO2` (stereo not drawn) had a z-score of 0.129.
The compound `O=c1cc(C(F)(F)F)c2cc3c4c(c2o1)CCCN4CCC3` yielded a z-score of -0.793.
Compound `CON(C)C(=O)Nc1ccc(Cl)cc1` returned a z-score of 0.516.
With `Fc1ccc(CCNCc2ccccc2Cl)cc1` the figure was 0.251; with `CCn1c(O)c(/C=N/N2CCOCC2)c(=O)n(CC)c1=S`, -0.174.
In turn, `CC1CCCC(C)N1/N=C/c1c[nH]c2ccc(Br)cc12` (stereo not drawn) displayed a z-score of 0.436.
`CC(C)c1cccc(C(C)C)c1OCCn1ccnc1` yielded a z-score of 2.23.
In the case of `CC1CCCN(CC(=O)N2CCCc3ccccc32)C1` (stereo not drawn), the z-score stood at 0.118.
In the case of `CN(C)CCOC(=O)c1cn(Cc2ccccc2)c2ccccc12`, the z-score was determined as 2.01.
With `N=c1c[n+](CC23CC4CC(CC(C4)C2)C3)[n-]o1` the figure was 2.09; with `C=CCN1C(=O)/C(=C/c2cccs2)C(=O)NC1=S`, 0.723.
With `Cc1ccc(S(=O)(=O)Cc2ccc(C(=O)N3CCC4(CC3)OCCO4)o2)cc1` the figure was 0.786; with `CCC(=NCCC(c1ccccc1)c1ccccc1)c1c(O)n(C)c(=O)n(C)c1=O`, -0.433.
In the case of `COc1cc(/C=C2\C(=O)NC(=O)N(CCc3ccc(F)cc3)C2=O)ccc1O`, the z-score is -0.256.
`CCCCP(=O)(O)c1ccccc1`: the z-score was -0.197.
Regarding `COc1ccc(CCC(C)NCCc2ccccc2)cc1` (stereo not drawn), the z-score stood at 0.71.
In turn, `CN(C)CP(=O)(O)CN(C)C=O` showed a z-score of -0.0986.
With `N/C(=N\N=C/c1ccc(-c2ccc(O)c(C(=O)O)c2)o1)N[N+](=O)[O-]` the figure was 0.363.
`Cc1cccc2c1N(N=O)CCC2`: the z-score is -0.139.
The same measure for `CSCCC(N=Cc1c(O)n(-c2ccc(Cl)cc2)c(=O)[nH]c1=O)C(=O)OC(C)(C)C` (stereo not drawn): -1.03.
The same measure for `O=C(C1CCC(=O)N1Cc1ccccc1Cl)N1CCC2(CC1)OCCO2` (stereo not drawn): -0.0696; for `COP(=O)(OC)C(NC(=O)C(C)(C)C)=C(Cl)Cl`: -0.459.
Turning to `O=C(CSc1ccccc1)N1CCC2(CC1)OCCO2`, the z-score is 1.36.
With `CCSc1cc(C2C(C#N)=C(N)Oc3n[nH]c(C)c32)c(C)o1` (stereo not drawn) the figure was -2.21; with `CCC(=NCCC(c1ccccc1)c1ccccc1)c1c(O)[nH]c(=O)[nH]c1=O`, -1.43; with `CC(NC1CCCCC1)C(O)C12CC3CC(CC(C3)C1)C2` (stereo not drawn), 2.39.
`CN1CCc2nc(N)c(C#N)c(-c3ccccc3)c2C1` yielded a z-score of 0.0811.
`CCC1(c2ccccc2)C(=O)N(C)C(=O)N(C)C1=O` had a z-score of -0.323.
Consider `CN(C)CC1CSCCC1(O)c1ccc(Cl)cc1` (stereo not drawn), for which the z-score is -0.0309.
The same measure for `CN1CCN(C(=O)COc2ccc(C(C)(C)C)cc2Br)CC1`: -0.545.
With `Brc1ccc2c(c1)C(OC1CN3CCC1CC3)c1ccccc1CS2` (stereo not drawn) the figure was 1.72; with `COc1cccc(NC(=O)N2CCC3(CC2)OCCO3)c1`, -0.0285.
With `O=C(Cc1ccccc1)OCCNC(=O)c1cccnc1` the figure was -0.0445; with `COc1ccc(C2SCC(=O)Nc3c2c(C)nn3-c2ccccc2)cc1OC` (stereo not drawn), 0.0147.
`OC1(c2cccnc2)CC2CCC(C1)N2Cc1nnnn1Cc1ccccc1` (stereo not drawn): the z-score is -0.142.
Turning to `C=CCn1c(O)c(C(C)=NCCN2CCOCC2)c(=O)[nH]c1=O`, the z-score turned out to be 1.5.
Take `CC(C)c1ccc(N2C(=O)NC(=O)/C(=C/C=C/c3ccco3)C2=O)cc1`: the z-score came out at 0.083.
As to `CN(C(=O)c1ccco1)C1(c2ccccc2Cl)CCCCC1=O` (stereo not drawn), the z-score is 0.733.
In turn, `CCN1CCN(C(=O)COc2cc(=O)n(CC)c3ccccc23)CC1` displayed a z-score of -0.283.
The same measure for `Cc1ccc(-n2c(O)c(C=Nc3ccc(S(=O)(=O)N(C)C)cc3)c(=O)[nH]c2=O)cc1`: -0.2.

These data come from PubChem BioAssay AID488969 (Vanderbilt High Throughput Screening Facility, 2010).
